Reference: PubChem BioAssay (NCI)
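Following 48 hours of exposure in 96-well plates, responses at five concentrations were used to interpolate endpoints linearly. GI50 is the concentration that inhibits growth by half.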 Not every entry of the source has a single result; some have several. The other results are left out here. There may be further records. For part of these data: A record mostly stands for its own series of concentrations, not given here; some values may only mark the edge of a range. For part of these data: The records of an entry are repeated measurements across runs, samples, wells, individuals or studies. Records carry a tag for their origin. A, B and so on number the origins entry by entry.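 TGI: concentration producing complete growth inhibition.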

Columns and labels:
Assay in all cases: NCI tumour cell line growth inhibition, 48 h
HL-60(TB) leukemia = tested on: HL-60(TB) leukemia
OVCAR-5 ovarian = tested on: OVCAR-5 ovarian
HOP-62 NSCLC = tested on: HOP-62 NSCLC
OVCAR-8 ovarian = tested on: OVCAR-8 ovarian
A498 renal = tested on: A498 renal
U251 CNS = tested on: U251 CNS
M19-MEL melanoma = tested on: M19-MEL melanoma
KM20L2 colon = tested on: KM20L2 colon
HCT-15 colon = tested on: HCT-15 colon
OVCAR-3 ovarian = tested on: OVCAR-3 ovarian
A549 NSCLC = tested on: A549 NSCLC
DMS 114 small cell lung = tested on: DMS 114 small cell lung
LOX IMVI melanoma = tested on: LOX IMVI melanoma
T-47D breast = tested on: T-47D breast
XF 498 CNS = tested on: XF 498 CNS
SW-620 colon = tested on: SW-620 colon
CAKI-1 renal = tested on: CAKI-1 renal
MDA-MB-435 = tested on: MDA-MB-435
IGROV1 ovarian = tested on: IGROV1 ovarian
MOLT-4 leukemia = tested on: MOLT-4 leukemia
SK-MEL-28 melanoma = tested on: SK-MEL-28 melanoma
HT29 colon = tested on: HT29 colon
MALME-3M melanoma = tested on: MALME-3M melanoma
OVCAR-4 ovarian = tested on: OVCAR-4 ovarian
SK-MEL-5 melanoma = tested on: SK-MEL-5 melanoma
NCI-H522 lung = tested on: NCI-H522 lung
NCI/ADR-RES ovarian = tested on: NCI/ADR-RES ovarian
RXF 393 renal = tested on: RXF 393 renal
UO-31 renal = tested on: UO-31 renal
HCC-2998 colon = tested on: HCC-2998 colon
UACC-62 melanoma = tested on: UACC-62 melanoma
SNB-75 CNS = tested on: SNB-75 CNS
HOP-92 NSCLC = tested on: HOP-92 NSCLC
K-562 leukemia = tested on: K-562 leukemia
NCI-H23 lung = tested on: NCI-H23 lung
TK-10 renal = tested on: TK-10 renal
UACC-257 melanoma = tested on: UACC-257 melanoma
SR leukemia = tested on: SR leukemia
RPMI-8226 leukemia = tested on: RPMI-8226 leukemia
SF-539 CNS = tested on: SF-539 CNS
HS 578T breast = tested on: HS 578T breast
NCI-H460 lung = tested on: NCI-H460 lung
SF-268 CNS = tested on: SF-268 CNS
SF-295 CNS = tested on: SF-295 CNS
SK-OV-3 ovarian = tested on: SK-OV-3 ovarian
SN12C renal = tested on: SN12C renal

**Q.** With `COc1ccc(-c2[nH]c(=O)n(C3OC(CO)C(O)C(O)C3O)c(=O)c2C#N)cc1` (centres undefined) as the molecule, how does the GI50 (HL-60(TB) leukemia) read?
**A.** > 100 µM [sample A, 1 test] and 9.62 µM [sample B, 1 test]

**Q.** With `COc1cccc2c1C(CO)N1C(C#N)C3CC(C(=O)O)C(C1C2)N3C` (centres undefined) as the molecule, how does the TGI (OVCAR-5 ovarian) read?
**A.** 9.57 µM and 444 nM

**Q.** And the GI50 (HOP-62 NSCLC)?
**A.** 284 nM [mean of 3 tests] and 3.27 µM [mean of 4 tests]

**Q.** What about the TGI (OVCAR-8 ovarian) of the same molecule?
**A.** 6.75 µM and > 100 µM

**Q.** And the TGI (A498 renal)?
**A.** 7.51 µM and > 100 µM

**Q.** What about the TGI (U251 CNS) of the same molecule?
**A.** 6.92 µM and > 100 µM

**Q.** And the TGI (M19-MEL melanoma)?
**A.** 8.91 µM and 594 nM

**Q.** And the TGI (KM20L2 colon)?
**A.** 8.37 µM and 502 nM

**Q.** What about the TGI (HCT-15 colon) of the same molecule?
**A.** 5.94 µM and > 62.7 µM

**Q.** What about the TGI (OVCAR-3 ovarian) of the same molecule?
**A.** 3 µM and > 100 µM

**Q.** And the TGI (A549 NSCLC)?
**A.** 9.1 µM and > 100 µM

**Q.** And the TGI (DMS 114 small cell lung)?
**A.** 4.95 µM and 429 nM

**Q.** What about the TGI (LOX IMVI melanoma) of the same molecule?
**A.** 4.92 µM and > 100 µM

**Q.** What about the TGI (T-47D breast) of the same molecule?
**A.** 670 nM and > 26.6 µM

**Q.** And the TGI (XF 498 CNS)?
**A.** 3.38 µM and > 100 µM

**Q.** And the TGI (SW-620 colon)?
**A.** 8.2 µM and > 100 µM

**Q.** What about the TGI (CAKI-1 renal) of the same molecule?
**A.** 2.99 µM and > 100 µM

**Q.** And the TGI (MDA-MB-435)?
**A.** 372 nM and 4.69 µM

**Q.** What about the GI50 (IGROV1 ovarian) of the same molecule?
**A.** 336 nM [mean of 3 tests] and 4.04 µM [mean of 4 tests]

**Q.** What about the TGI (MOLT-4 leukemia) of the same molecule?
**A.** 7.03 µM and 370 nM

**Q.** For `COc1ccc2[nH]c3c(C)c4ccnc(NCCCN(C)CCCNc5ccc6nnn7c8ccccc8c(=O)c5c67)c4c(C)c3c2c1`, which TGI (SK-MEL-28 melanoma) is on record?
**A.** 4.28 µM and > 100 µM

**Q.** `CCc1c2c(nc3ccc(O)cc13)-c1cc3c(c(=O)n1C2)COC(=O)[C@]3(O)CC` was tested. Which GI50 (HT29 colon) did it give?
**A.** < 1 nM [1 test] and 43.7 nM [mean of 3 tests]

**Q.** What about the GI50 (MALME-3M melanoma) of the same molecule?
**A.** < 1 nM [1 test] and 81.4 nM [mean of 2 tests]

**Q.** And the TGI (MALME-3M melanoma)?
**A.** 333 nM [1 test] and 4.46 µM [mean of 2 tests]

**Q.** And the TGI (OVCAR-4 ovarian)?
**A.** 915 nM and > 31.6 µM

**Q.** And the GI50 (SK-MEL-5 melanoma)?
**A.** < 1 nM [1 test] and 14.1 nM [mean of 3 tests]

**Q.** What about the TGI (SK-MEL-5 melanoma) of the same molecule?
**A.** 7.57 nM [1 test] and 121 nM [mean of 3 tests]

**Q.** And the GI50 (NCI-H522 lung)?
**A.** < 1 nM [1 test] and 17.4 nM [mean of 3 tests]

**Q.** What about the TGI (HOP-62 NSCLC) of the same molecule?
**A.** 1.28 nM and 201 nM

**Q.** And the GI50 (NCI/ADR-RES ovarian)?
**A.** < 1 nM [1 test] and 31.4 nM [mean of 3 tests]

**Q.** And the GI50 (OVCAR-8 ovarian)?
**A.** < 1 nM [1 test] and 14.7 nM [mean of 3 tests]

**Q.** And the TGI (OVCAR-8 ovarian)?
**A.** 16.1 nM [1 test] and > 17.2 µM [mean of 3 tests]

**Q.** And the GI50 (RXF 393 renal)?
**A.** < 1 nM [1 test] and 31.9 nM [mean of 3 tests]

**Q.** What about the TGI (RXF 393 renal) of the same molecule?
**A.** 17.2 nM [1 test] and 306 nM [mean of 3 tests]

**Q.** What about the GI50 (A498 renal) of the same molecule?
**A.** < 1 nM [1 test] and 37.9 nM [mean of 3 tests]

**Q.** And the TGI (A498 renal)?
**A.** 23.2 nM [1 test] and 306 nM [mean of 3 tests]

**Q.** And the TGI (U251 CNS)?
**A.** 1.68 nM and 198 nM

**Q.** What about the GI50 (UO-31 renal) of the same molecule?
**A.** < 1 nM [1 test] and 12.5 nM [mean of 3 tests]

**Q.** What about the GI50 (HCC-2998 colon) of the same molecule?
**A.** < 1 nM [1 test] and 86.1 nM [mean of 3 tests]

**Q.** And the TGI (HCC-2998 colon)?
**A.** 114 nM [1 test] and 4.84 µM [mean of 3 tests]

**Q.** And the TGI (UACC-62 melanoma)?
**A.** 5.16 nM and 138 nM

**Q.** What about the GI50 (SNB-75 CNS) of the same molecule?
**A.** < 1 nM [1 test] and 14.8 nM [mean of 3 tests]

**Q.** What about the TGI (HOP-92 NSCLC) of the same molecule?
**A.** 4.83 nM [1 test] and 193 nM [mean of 2 tests]

**Q.** What about the GI50 (K-562 leukemia) of the same molecule?
**A.** < 1 nM [1 test] and 25.1 nM [mean of 3 tests]

**Q.** And the TGI (NCI-H23 lung)?
**A.** 1.39 µM and 99.8 nM

**Q.** And the TGI (TK-10 renal)?
**A.** 1.21 µM and 31.5 µM

**Q.** And the TGI (LOX IMVI melanoma)?
**A.** 9.34 nM and 135 nM

**Q.** And the TGI (HL-60(TB) leukemia)?
**A.** < 1 nM and > 100 µM

**Q.** And the TGI (T-47D breast)?
**A.** 144 nM and 2.66 µM

**Q.** What about the TGI (UACC-257 melanoma) of the same molecule?
**A.** 174 nM and 2.49 µM

**Q.** What about the GI50 (SW-620 colon) of the same molecule?
**A.** < 1 nM [1 test] and 26.1 nM [mean of 3 tests]

**Q.** And the GI50 (MDA-MB-435)?
**A.** < 1 nM [1 test] and 33.7 nM [mean of 3 tests]

**Q.** What about the GI50 (IGROV1 ovarian) of the same molecule?
**A.** < 1 nM [1 test] and 225 nM [mean of 3 tests]

**Q.** And the TGI (IGROV1 ovarian)?
**A.** 294 nM [1 test] and > 25.9 µM [mean of 3 tests]

**Q.** What about the TGI (SR leukemia) of the same molecule?
**A.** < 1 nM and > 100 µM

**Q.** And the TGI (RPMI-8226 leukemia)?
**A.** 43.7 nM and 97.5 µM

**Q.** And the TGI (MOLT-4 leukemia)?
**A.** < 1 nM and > 100 µM

**Q.** And the TGI (SF-539 CNS)?
**A.** < 1 nM and 15.7 nM

**Q.** For `COc1cc(CC(C)C(C)Cc2ccc(O)c(OC)c2)ccc1O` (centres undefined), which TGI (HL-60(TB) leukemia) is on record?
**A.** 23.1 µM and 75.8 nM

**Q.** For `CCNC(=O)CCC(C)[C@H]1CCC2C3C(C[C@H](OC(C)=O)[C@@]21C)[C@@]1(C)CCC2(C[C@H]1C[C@H]3OC(C)=O)OOC1(CCC(C)CC1)OO2` (some centres undefined), which TGI (HS 578T breast) is on record?
**A.** 89.9 µM [sample A] and 7.88 µM [sample B]

**Q.** What about the TGI (HT29 colon) of the same molecule?
**A.** > 100 µM [sample A, 1 test] and 9.86 µM [sample B, 1 test]

**Q.** And the TGI (NCI/ADR-RES ovarian)?
**A.** > 100 µM [sample A] and 3.53 µM [sample B]

**Q.** And the TGI (OVCAR-8 ovarian)?
**A.** > 100 µM [sample A] and 3.24 µM [sample B]

**Q.** What about the TGI (NCI-H460 lung) of the same molecule?
**A.** > 100 µM [sample A] and 4.47 µM [sample B]

**Q.** What about the TGI (SF-268 CNS) of the same molecule?
**A.** > 100 µM [sample A, 1 test] and 3.62 µM [sample B, 1 test]

**Q.** What about the TGI (SW-620 colon) of the same molecule?
**A.** > 100 µM [sample A] and 9.93 µM [sample B]

**Q.** And the TGI (SF-295 CNS)?
**A.** > 100 µM [sample A] and 5.2 µM [sample B]

**Q.** And the TGI (SK-OV-3 ovarian)?
**A.** > 100 µM [sample A] and 7.12 µM [sample B]

**Q.** What about the TGI (SN12C renal) of the same molecule?
**A.** 55.9 µM [sample A] and 4.41 µM [sample B]
